Assay results: PubChem BioAssay AID651711 (Broad Institute, 2012)
In all, about 350,000 compounds went through this assay and about 180 (0.051%) were called active. The shares of active, inactive and inconclusive entries below differ from those in the screen.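 How the source made its calls: active means mean replicate inhibition above about 25%, with every replicate also reaching it (limit read from the data, passing the limit was not always enough); inconclusive means only one of those two criteria met; inactive means neither criterion met.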

Each molecule was assayed against Protein disulfide-isomerase A6 (Homo sapiens) (UniProt Q15084) (assay: inhibitors of ERp5-driven insulin aggregation, primary screen, biochemical, turbidity, absorbance 650 nm, single point (AID 651711)). Settings: 90 min, at 9.99 µM, hits give high values.
Sequence of UniProt Q15084 (Q15084 whole entry, looked up): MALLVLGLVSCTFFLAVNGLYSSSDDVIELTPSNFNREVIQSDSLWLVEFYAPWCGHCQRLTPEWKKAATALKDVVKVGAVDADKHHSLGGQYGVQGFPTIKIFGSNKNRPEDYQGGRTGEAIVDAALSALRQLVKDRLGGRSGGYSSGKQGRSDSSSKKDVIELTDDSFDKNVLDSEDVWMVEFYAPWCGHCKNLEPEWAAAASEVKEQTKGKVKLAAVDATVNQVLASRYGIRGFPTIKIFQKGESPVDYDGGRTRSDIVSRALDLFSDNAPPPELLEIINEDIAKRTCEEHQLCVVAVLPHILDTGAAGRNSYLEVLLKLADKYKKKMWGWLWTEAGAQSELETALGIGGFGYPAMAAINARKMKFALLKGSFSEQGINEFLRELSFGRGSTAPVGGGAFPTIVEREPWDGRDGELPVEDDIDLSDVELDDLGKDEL

| SMILES | inhibition |
| --- | --- |
| Cc1ccsc1C(=O)OCC(=O)c1cc(C)n(C)c1C | inconclusive: 37.8% |
| O=C1c2ccc3c4c(ccc(c24)C(=O)N1c1cccc(O)c1)CC3 | inconclusive: 37% |
| O=C(Cc1ccccc1)NS(=O)(=O)c1ccc(N=NN2CCOCC2)cc1 | inconclusive: 44.9% |
| CC(C)(C)c1cc(C(=O)C[n+]2ccc(C(=O)NCCCO)cc2)cc(C(C)(C)C)c1O | inconclusive: 36.7% |
| CNC(=S)NNC(=O)c1ccc(=O)n(Cc2cccc(C(F)(F)F)c2)c1 | inconclusive: 43.4% |
| COc1ccccc1-c1ccc([C@@H]2[C@H](C#N)N(C(=O)C3CC3)[C@H]2CO)cc1 | inconclusive: 45.8% |
| Cc1cc(NC(=O)CCCn2nc([N+](=O)[O-])c(Br)c2C)no1 | inconclusive: 51.8% |
| CCN(c1cccc2ccccc12)S(=O)(=O)c1ccc(Cl)nc1 | inconclusive: 41.3% |
| C[C@H](CO)N1C[C@H](C)[C@H](CN(C)CC2CC2)Oc2cc(-c3ccc(C#N)cc3)ccc2S1(=O)=O | inconclusive: 39.2% |
| CC(C)[C@H](NC(N)=O)C(=O)Nc1cccc(S(=O)(=O)N2CCOCC2)c1 | inconclusive: 42.4% |
| O=C(CCc1nnc(CCCc2ccccc2)o1)NCCc1ccco1 | inconclusive: 41.1% |
| CC1CCC2=NN(C(=O)c3ccco3)C(O)(C(F)(F)F)C2C1 (centres undefined) | inconclusive: 28.1% |
| Cc1cc(CSc2ccccc2C(=O)O)on1 | inconclusive: 26.8% |
| S=C(NCc1ccccc1)NNc1nc2ccccc2[nH]1 | inconclusive: 42.9% |
| COc1cc2c(cc1OC)C(c1cccc([N+](=O)[O-])c1)NC(=O)C2 (centres undefined) | inconclusive: 31.1% |
| CO[C@H]1CN(C)C(=O)c2ccc(NC(=O)c3ccccc3)cc2OC[C@@H](C)N(C)C[C@@H]1C | inconclusive: 25.2% |
| CN(C)c1ccc(-c2nc3cnccn3c2Nc2ccc3c(c2)OCCO3)cc1 | inactive: -6.86% |
| CC(=O)Nc1cc(-c2cccc(C(=O)NCCN(C)C)c2)cn2c(-c3ccc(C(C)=O)cc3)cnc12 | inactive: 1.69% |
| CC(C)Cc1nnc(NC(=O)Cc2ccc([N+](=O)[O-])cc2)s1 | inactive: 8.44% |
| COc1cc(OC)c(CN2CCCCCCC2)cc1Br | inconclusive: 43.8% |
| C=CCn1c(COc2ccc(OC)cc2)nnc1SCn1nnc2ccccc2c1=O | inconclusive: 34.4% |
| Cc1ccc(NC(=O)CCCN2C(=O)NC(C)(C)C2=O)cc1 | inactive: -1.66% |
| O=c1[nH]c2ccccc2c2nc(-c3cccc(S(=O)(=O)N4CCCC4)c3)nn12 | inconclusive: 41.7% |
| CCCCn1c(SCC(=O)Nc2cc(C)on2)nnc1-c1cccs1 | inconclusive: 40% |
| COc1cccc(NC(=O)C[C@@H]2CC[C@@H]3[C@@H](COc4ccc(NC(=O)C5CCCC5)cc4C(=O)N3C)O2)c1 | inactive: 3.6% |
| Cc1ccc(-c2c(C)sc3ncn(CC(=O)N4CCOCC4)c(=O)c23)cc1C | inconclusive: 29.6% |
| O=S(=O)(Nc1ccc(F)cc1)c1cccc2nsnc12 | inconclusive: 30% |

| SMILES | inhibition |
| --- | --- |
| Cc1ccc(SCC(=O)Nc2nccs2)cc1 | inconclusive: 38.1% |
| Cc1cccc(NC(=O)c2n[nH]c([N+](=O)[O-])c2Br)c1C | inconclusive: 43.4% |
| CC1CCN(CCCOc2ccc(Br)cc2Cl)CC1 | inactive: 0.379% |
| O=C(O)CCc1ccc(-c2ccc(Br)cc2)n1NC(=O)c1ccc([N+](=O)[O-])cc1 | inconclusive: 37.9% |
| Cc1cc(NC(=O)c2ccc(Cl)cc2Cl)n(CCC#N)n1 | inconclusive: 31.2% |
| C[C@H](CO)N1C[C@H](C)[C@H](CN(C)Cc2cncnc2)Oc2ncc(-c3cccc(C#N)c3)cc2C1=O | active: 52.3% |
| Cc1nn(C)c(C(=O)N2CCN(C(=O)c3ccco3)CC2)c1Br | inconclusive: 44.4% |
| Cc1ccc(N2CCN(S(=O)(=O)N3CCCCC3)CC2)cc1Cl | inconclusive: 26.3% |
| CN(C)CCCNC(=O)/C=C/c1ccc(OCc2c(F)cccc2Cl)cc1 | inconclusive: 33.5% |
| CCC(C)c1ccc(N(C(=O)c2ccco2)C(C(=O)NC2CCCC2)c2cccnc2)cc1 (centres undefined) | inactive: -0.612% |
| COc1cccc(C(=O)NC(=S)Nc2cccnc2)c1 | inconclusive: 41.3% |
| Nc1nonc1-n1nnc(C(=O)N/N=C/c2ccoc2)c1-c1ccccc1 | inconclusive: 26.4% |
| O=C(CCCl)N1CCN(c2nc(-c3ccccc3)cs2)CC1 | inconclusive: 37.6% |
| Cc1ccc(S(=O)(=O)c2cnc(-c3ccccc3)nc2N2CCN(C)CC2)cc1 | inconclusive: 43.5% |
| COc1ccc(NC(=O)CSCc2ccc(C#N)cc2)c(OC)c1 | inconclusive: 50.4% |
| COc1ccc(NC(=O)Nc2ccc3c(c2)CC(=O)N([C@H](C)CO)C[C@@H](C)[C@H](CN(C)S(=O)(=O)c2cn(C)cn2)O3)cc1 | inactive: 6.73% |
| CCOC(=O)c1c(NC(=O)COC(=O)c2ccccn2)sc2c1CCC2 | inconclusive: 36.1% |
| COc1ccc(Cc2nnc(SCC(=O)NC3(C#N)CCCCC3)n2N)cc1 | active: 25% |
| O=C(CC1C(=O)CCCC1=O)c1ccccc1 | inconclusive: 39.9% |
| COc1ccc2c3c(n(C)c2c1)[C@H](CO)N(C(C)=O)CC31CN(C(=O)C2CCOCC2)C1 | inactive: -0.742% |
| Cn1c(=O)n(C)c2cc(S(=O)(=O)N3CCN(c4ccccc4)CC3)ccc21 | inconclusive: 39.9% |
| O=C(O)c1ccccc1C(c1ccccc1)c1ccccc1O (centres undefined) | inactive: -3.75% |
| C[C@@H]1CN([C@H](C)CO)C(=O)c2cc(NC(=O)CCN3CCOCC3)ccc2O[C@@H]1CN(C)C(=O)Nc1ccc2c(c1)OCO2 | inactive: -5.8% |
| O=S(=O)(c1cccc(F)c1)N1[C@@H]2CNC[C@H]1C2c1ccc(-c2ccccc2)cc1 (some centres undefined) | inconclusive: 25.7% |
| CN(C)C(=O)C[C@H]1CC[C@@H]2[C@H](COC[C@H](O)CN2CC2CC2)O1 | inconclusive: 47.9% |
| COc1ccc(CCn2cc(C#N)c(=O)[nH]c2=O)cc1OC | inconclusive: 40.4% |
| COc1ccc(NC(=O)Nc2ccc3c(c2)C(=O)N([C@@H](C)CO)C[C@H](C)[C@@H](CN(C)C(=O)Nc2ccc(F)cc2)OCCCC[C@H](C)O3)cc1 | inactive: 3.66% |

| SMILES | inhibition |
| --- | --- |
| COc1cccc(NC(=O)N[C@@H]2C=C[C@H](CC(=O)NCc3ccccn3)O[C@H]2CO)c1 | inconclusive: 45.8% |
| CCC[C@@H](CN1CCC[C@H]1CN1C(N)=NC[C@H]1CC(C)C)N1C[C@@H]([C@H](C)CC)N(CCCC2CCCC2)C1=N | active: 26.9% |
| Cc1ccc(C2Nc3ccccc3NC3=C2C(=O)CC(C)(C)C3)c(O)c1 (centres undefined) | inactive: -4.68% |
| O=C(/C=C/c1ccco1)Nc1ccc(N2CCCC2)cc1 | inconclusive: 39.7% |
| COc1ccc(Oc2cc(C(F)(F)F)nc(N(C)C)n2)cc1 | inconclusive: 48.4% |
| C[C@@H]1CN([C@@H](C)CO)C(=O)c2cc(-c3cccc(C#N)c3)cnc2O[C@H]1CN(C)Cc1cncnc1 | active: 83.8% |
| NC(=O)c1ccccc1OCC(=O)Nc1ccc(Cl)c(Cl)c1 | inconclusive: 38.8% |
| O=C(C[C@H]1CC[C@H](NS(=O)(=O)c2ccccc2)[C@@H](CO)O1)NCc1ccncn1 | inconclusive: 47.6% |
| COc1ccc(OC)c(NC(=O)c2ccccc2NC(=O)c2ccco2)c1 | inconclusive: 38.1% |
| CCCNC(=O)Nc1ccc2c(c1)OC[C@H](C)N(CCC(F)(F)F)C[C@@H](C)[C@H](OC)CN(C)C2=O | inconclusive: 26.6% |
| CC(C)N(CCCNC(=O)c1ccc(N2CCCC2=O)cc1)Cc1ccccc1 | inconclusive: 38.5% |
| O=C(CCN1C(=O)C2CCCCC2C1=O)Nc1nc(-c2ccc(F)c(F)c2)cs1 (centres undefined) | inconclusive: 30% |
| O=C(/C=C1\SC(=O)NC1=O)Nc1ccc(C(=O)O)cc1 | inconclusive: 44.1% |
| COCC#Cc1cnc2c(c1)C(=O)N([C@@H](C)CO)C[C@H](C)[C@@H](CN(C)C(=O)NC1CCCC1)O2 | active: 49.8% |
| CCS(=O)(=O)N1CCCCN2[C@H](C1)[C@@H](c1ccc(-c3ccc(C(=O)N(C)C)cc3)cc1)[C@@H]2CO | inactive: -4.22% |
| CN=c1scc(-c2cccs2)n1/N=C/c1ccc(O)c(O)c1O | inactive: 3.25% |
| COc1cc(O)c(C(CC(=O)N2CCOCC2)c2ccc(N(C)C)cc2)c(OC)c1 (centres undefined) | inactive: -1.05% |
| COC(=O)CCC(=O)OC1(C)C(=O)C=C2C=C(C3CC3)N(CCN3CCOCC3)C=C2C1=O (centres undefined) | inactive: 6.31% |
| COc1ccc(-n2c(COc3ccc4ccccc4c3)nnc2SCC(=O)NCc2ccco2)cc1 | inconclusive: 47.4% |
| Cc1cccc[n+]1CC(=O)c1ccc(NC(=O)c2ccccc2)cc1 | inconclusive: 32.1% |
| O=C(COC(=O)CNS(=O)(=O)c1cccc(Br)c1)NC(=O)Nc1ccc2c(c1)OCCO2 | inconclusive: 32.8% |
| COc1ccc2c3c([nH]c2c1)[C@H](CO)N(C(=O)C1CCOCC1)CC31CCN(Cc2nccs2)CC1 | active: 83.6% |
| COc1ccccc1-c1ccc([C@H]2[C@@H](C#N)N(C(=O)C3CC3)[C@H]2CO)cc1 | inconclusive: 44.3% |
| CCc1nc2ccc(C(=O)Nc3cc(-c4ccccc4)ccc3OC)cn2c1N(C)Cc1ccc(OC)cc1 | inactive: -3.75% |
| COc1ccc(S(=O)(=O)Nc2ccc3c(c2)CC(=O)N([C@H](C)CO)C[C@H](C)[C@@H](CN(C)Cc2ccc(C(F)(F)F)cc2)O3)cc1 | inactive: 12.1% |
